Test results as given in PubChem BioAssay AID1745853 (National Center for Advancing Translational Sciences (NCATS), 2022).
The other results are listed elsewhere or left out. Shown are side measurements of this screen, not its main read-out; they come without a call.

Columns and labels:
Experiment in all cases: Primary Screen for Target Class Profiling of Small Molecule Inhibitors of Methyltransferases
[1] = molecular target: Glycine N-methyltransferase (Homo sapiens) (UniProt Q14749); settings: purified enzyme, MTase-Glo SAH luminescence; measured here: GNMT inhibition; at 40 µM; stronger effect = lower value
Outline: (§1)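 Each enzyme was assayed with SAM and its substrate. SAH formation detected by MTase-Glo luminescence; single-point 40 uM screen[…].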

[2] = molecular target: Guanidinoacetate N-methyltransferase (Homo sapiens) (UniProt Q14353); settings: purified enzyme, MTase-Glo SAH luminescence; measured here: GAMT inhibition; at 40 µM; stronger effect = lower value
Outline: as §1

[3] = molecular target: Histamine N-methyltransferase (Homo sapiens) (UniProt P50135); settings: purified enzyme, MTase-Glo SAH luminescence; measured here: HNMT inhibition; at 40 µM; stronger effect = lower value
Outline: as §1

[4] = molecular target: Nicotinamide N-methyltransferase (Homo sapiens) (UniProt P40261); settings: purified enzyme, MTase-Glo SAH luminescence; measured here: NNMT inhibition; at 40 µM; stronger effect = lower value
Outline: as §1

[5] = molecular target: Phenylethanolamine N-methyltransferase (Homo sapiens) (UniProt P11086); settings: purified enzyme, MTase-Glo SAH luminescence; measured here: PNMT inhibition; at 40 µM; stronger effect = lower value
Outline: as §1
% is set by controls: 0 for no effect and ±100 for the full control effect.

Row | SMILES | activity change, negative = inhibition [1] | activity change, negative = inhibition [2] | activity change, negative = inhibition [3] | activity change, negative = inhibition [4] | activity change, negative = inhibition [5]
1 | CCCCCCCCCCCCCCCCCC(=O)OC(CC(=O)O)C[N+](C)(C)C (stereo not given) | -7.72% | 4.95% | 1.33% | -5.66% | 0.875%
2 | CCN(CC)c1nc2c(-c3cccc(F)c3)nnn2c2ccc(Cl)cc12 | 4.37% | 4.07% | 4.01% | 10.9% | -0.519%
3 | CN(CC(=O)Nc1cccc(F)c1)S(=O)(=O)c1ccc2[nH]c3c(c2c1)CCCC3 | -1.04% | 4.42% | 5.39% | -0.38% | 1.89%
4 | Cc1cc(C)cc(NC(=O)Cn2nc3n(C(C)C)c(=O)c4ccc(C(=O)NC(C)C)cc4n3c2=O)c1 | 4.8% | 1.16% | 6.43% | -1.21% | 4.27%
5 | Cc1ccc2c(c1)c(-n1cccc1)c1n2CC(C)(C(=O)NC2CCC(C)CC2)N(Cc2ccco2)C1=O (stereo not given) | -7.24% | -1.74% | -2.73% | -5.19% | -5.07%
6 | CN(Cc1ccccc1)Cc1nnc(C(=O)N2CCC[C@@H]2c2cccc(F)c2)n1-c1ccccc1 | -0.469% | 2.55% | 1.94% | -8.32% | -0.945%
7 | Cc1nn(C)c(C)c1CCC(=O)NCCc1ncc(C)n1Cc1ccc(F)cc1 | -2.35% | -0.174% | -22.4% | -9.13% | 11.6%
8 | CC(C)CCn1c(=O)c2ccccc2n2c(CCC(=O)N3CCN(Cc4ccccc4)CC3)nnc12 | -6.22% | 0.985% | -1.2% | -42.1% | 1.68%
9 | CCCn1c(=O)c2ccc(C(=O)NC3CCCC3)cc2n2c(=O)n(CC(=O)Nc3cccc(F)c3)nc12 | 1.39% | 4.88% | 2.17% | -0.173% | 2.69%
10 | CC1(C(=O)NC2CCCCC2)Cn2c(cc3occc32)C(=O)N1Cc1ccco1 (stereo not given) | -5.85% | 3.95% | 0.947% | 1.05% | -0.813%
11 | CC(c1n[nH]c(=O)n1CCC(=O)O)n1cccn1 (stereo not given) | -2.41% | 3.81% | 1.54% | -0.769% | 18%
12 | CCc1ccc(C(=O)N2CCC([C@@H]3CNC[C@H]3CO)CC2)cc1 | -1% | 0.643% | -3.23% | 3.46% | -2.49%
13 | c1ccc(CCCN2CC[C@H](c3nc4ccccc4s3)C2)cc1 | -4.97% | -0.922% | -8.08% | -5.33% | 7.35%
14 | O=C(NC1CCCCC1)N1C2CCC1CN(c1ccc(C(F)(F)F)cc1)C2 | 0.763% | -0.543% | 2.97% | -2.15% | -4.16%
15 | COc1cccc(N2C(=O)c3cc4ccccc4n3CC2(C)C(=O)NCc2ccccc2OC)c1 (stereo not given) | -5.83% | 2.92% | -4.52% | -10.5% | -8.4%
16 | Cc1ccc(Cl)cc1NS(=O)(=O)c1ccc2c(c1)n(C)c(=O)n2C | 4.48% | 0% | 4.4% | -1% | 5.34%
17 | CCCN1C(=O)c2c(C(=O)NCc3cccc(OC)c3)ncn2CC1(C)C(=O)NCc1ccc(OC)cc1 (stereo not given) | -3.18% | 2.48% | 0.369% | -1.24% | 0.991%
18 | Cc1c(Cl)cccc1NS(=O)(=O)c1ccc2c(c1)NC(=O)CC(=O)N2 | -3.98% | 3.78% | 6.52% | 3.04% | -3.27%
19 | Cc1nc(NC(C)c2nc(-c3cccnc3)no2)c2cccnc2n1 (stereo not given) | -5.69% | -7.21% | -4.12% | -8.1% | -8.51%
20 | CCOC(=O)c1cc2n(n1)CC(C)(C(=O)NC1CCCCC1)N(c1ccc(C)c(Cl)c1)C2=O (stereo not given) | -6.07% | -0.298% | -9.27% | -8.8% | -0.603%

Row | SMILES | activity change, negative = inhibition [1] | activity change, negative = inhibition [2] | activity change, negative = inhibition [3] | activity change, negative = inhibition [4] | activity change, negative = inhibition [5]
21 | Cc1cccc(N2C(=O)c3cc4occc4n3CC2(C)C(=O)NC2CCCCCC2)c1C (stereo not given) | -3.07% | 0% | 5.09% | 6.78% | 1.24%
22 | COc1cccc(CN2C(=O)c3cc4sccc4n3CC2(C)C(=O)NC2CCCCC2)c1 (stereo not given) | 2.96% | 0% | 0.051% | -1.14% | 0.042%
23 | CC(=O)NCC1CN(C(=O)NCc2ccc(OC(F)(F)F)cc2)CC12CCCCC2 (stereo not given) | -0.491% | -0.77% | 2.92% | -9.28% | 3.15%
24 | Cc1ccc(Cn2c(=O)c3ccccc3n3c(=O)n(Cc4ccccc4)nc23)cc1 | 0.023% | 3.63% | 2.35% | 1.99% | -2.05%
25 | O=C(O)CC1(CC(=O)N[C@@H]2C=C(C(=O)N[C@H]3CCCNC3=O)C[C@@H](O)[C@@H]2O)CCCC1 | -4.86% | -6.68% | -1.53% | -2.22% | -7.21%
26 | O=C1OCCC1CCC(=O)N1CCc2c(nc(-c3ccccc3)[nH]c2=O)C1 (stereo not given) | -6.52% | -10% | -3.88% | -14.6% | -22.5%
27 | CC(=O)c1ccc(NC(=O)N2C[C@@H]3C[C@H](C2)c2ccc(NC(=O)c4ccc(F)cc4)c(=O)n2C3)cc1 | -7.69% | -8.9% | -6.58% | -12.6% | -8.35%
28 | CCOc1ccc(CN2C(=O)c3cc4sccc4n3CC2(C)C(=O)NC2CCCCC2)cc1 (stereo not given) | 3.74% | 3.37% | -0.765% | 6.43% | 3%
29 | CC1(C(=O)NC2CCCCCC2)Cn2c(ccc2-c2ccco2)C(=O)N1Cc1cccc(F)c1 (stereo not given) | -1.34% | 4% | -0.582% | -5.18% | -3.04%
30 | COc1cccc(CNC(=O)C(C)n2ccc3cc(S(=O)(=O)N4CCCC4)ccc32)c1OC (stereo not given) | 6.28% | 0% | 2.06% | 6.4% | 1.93%
31 | CN(C)[C@H]1CCCCN(C(=O)c2cn(CCN3CCNCC3)nn2)C1 | -5.66% | -10.4% | -3.05% | -7.38% | -3.89%
32 | Cc1cccc(NC(=O)CSc2nnc3n(CC(C)C)c(=O)c4ccc(Cl)cc4n23)c1 | -0.822% | 2.86% | 2.59% | -0.439% | -3.62%
33 | Cc1ccc(-c2n[nH]n3c2nc(=O)c2ccc(C(=O)NCCc4cccs4)cc23)cc1 | -12.7% | 4.51% | -3.09% | -2.43% | -1.43%
34 | COc1ccc(CNC(=O)Cn2c(=O)oc3cc(S(=O)(=O)NCc4ccccc4)ccc32)cc1 | 12.3% | 2.23% | 12.3% | -1.87% | 7.92%
35 | CC1CC(C)CN(S(=O)(=O)c2ccc3c(c2)oc(=O)n3CC(=O)NCc2ccco2)C1 (stereo not given) | -8.67% | 4.62% | 1.07% | -10.7% | -7.69%
36 | COC(=O)c1cc2n(n1)CC(C)(C(=O)NC1CCC(C)CC1)N(Cc1ccc(OC)cc1)C2=O (stereo not given) | 5.36% | 0.967% | 7.49% | 7.14% | 4.76%
37 | CCN1CCN(C(=O)c2cn3cc(-c4cccnc4)sc3n2)CC1 | -8.07% | -10.7% | -6.05% | -14.7% | -6.89%
38 | COc1cc(OC)cc(C(=O)Nc2ccc(Cl)c(-c3nc4ccc(N(C)C)cc4[nH]3)c2)c1 | -10% | -21.8% | -1.04% | -51.8% | -15.9%
39 | COc1ccc(OC)c(CCN2C(=O)c3cc4ccccc4n3CC2(C)C(=O)NCc2ccccc2)c1 (stereo not given) | -7.77% | 3.78% | 0.613% | 2.26% | -2.38%
40 | Cn1cnc2ccc(-c3ccncc3)nc2c1=O | -8.53% | -10% | -4.04% | -8.55% | -10.9%

Row | SMILES | activity change, negative = inhibition [1] | activity change, negative = inhibition [2] | activity change, negative = inhibition [3] | activity change, negative = inhibition [4] | activity change, negative = inhibition [5]
41 | O=C(NCC(=O)N1CCCC1)Nc1ccc2cnccc2c1 | -6.37% | -6.63% | -5.66% | -15.6% | -14.2%
42 | Cc1cc(C)cc(N2CCC(N)C2=O)c1 (stereo not given) | -1.85% | -1.6% | 0.023% | -1.11% | -5.37%
43 | COc1cccc(CN2C(=O)c3cc(C(C)(C)C)nn3CC2(C)C(=O)NC2CCCCC2)c1 (stereo not given) | 1.51% | 0% | 5.71% | 2.25% | 2.54%
44 | O=C(NC1CCCCC1)c1ccc2c(=O)n(Cc3ccccc3)c3n[nH]c(=O)n3c2c1 | -4.5% | 0% | 0.062% | -22.5% | -9.13%
45 | CCc1ccc(N2C(=O)c3cc4occc4n3CC2(C)C(=O)NC2CCCCC2)cc1 (stereo not given) | 1.51% | 0% | 7.04% | 13.3% | 3.71%
46 | COc1ccccc1CNS(=O)(=O)c1cc2[nH]c(=O)[nH]c2cc1C | 13.8% | 0% | 12.9% | 2.42% | 3.56%
47 | COc1ccccc1CNC(=O)C1(C)Cn2nc(-c3ccccc3)cc2C(=O)N1c1cccc(C)c1C (stereo not given) | 2.45% | 3.54% | 6.98% | 5.81% | -0.797%
48 | O=C1CO[C@H]2CN(Cc3ccncc3)C[C@H]2N1Cc1ccc(F)cc1 | -6.14% | -14.1% | -4.74% | -16.3% | -5.72%
49 | Cc1ccc(CNC(=O)CCc2nnc3n(Cc4ccccc4Cl)c(=O)c4ccccc4n23)cc1 | 1.45% | 1.01% | 11.6% | 15.9% | 1.47%
50 | Cn1nc(-c2cccc(F)c2)c(N2CCCC2)c1NC(=O)NCc1ccccc1 | -4.33% | -0.937% | -1.39% | -4.26% | -7.23%
51 | CCCN1C(=O)c2cc(C(=O)NCc3cccc(OC)c3OC)nn2CC1(C)C(=O)NC1CCCC1 (stereo not given) | -2.05% | 2.21% | -1.03% | -6.65% | -6.64%
52 | CCc1cccc(N2C(=O)c3cc(-c4ccc(OC)cc4)nn3CC2(C)C(=O)NCc2ccccc2OC)c1 (stereo not given) | -0.529% | 2.22% | -0.217% | 0.161% | -7.13%
53 | CCOC(=O)c1cccc(NC(=O)c2cc3n(n2)CC(C)(C(=O)NC2CCCCC2)N(C)C3=O)c1 (stereo not given) | 6.36% | 4.38% | 8.15% | 5.55% | 2.33%
54 | CC(C)(C)C(=O)N1CCC2(CC1)C(=O)N(CC(=O)Nc1cccc(Cl)c1)CN2c1ccccc1 | -3.61% | 3.48% | -1.2% | -7.23% | 4.72%
55 | COc1ccc(N2C(=O)c3cc(-c4cccs4)nn3CC2(C)C(=O)NC2CCCCC2)cc1Cl (stereo not given) | 2.5% | 2.69% | 8.4% | 3.8% | 4.48%
56 | CN(C)CC[C@@H](c1ccc(Cl)cc1)c1ccccn1 | 7.05% | 10.5% | -19.1% | -4.43% | 5.62%
57 | CN1C(=O)CC(C(=O)O)C12CCN(Cc1nc3ccsc3c(=O)[nH]1)CC2 (stereo not given) | -5% | -8.08% | -4.56% | -15.1% | -7.92%
58 | CC(C)CNC(=O)c1ccc2c(=O)n(CC(C)C)c3nn(Cc4cccc(F)c4)c(=O)n3c2c1 | 4.42% | 2.85% | 3.81% | 1.85% | -2%
59 | CC1=C(COC2OC(CO)C(O)C(O)C2O)C(C(CO)C(=O)O)CC1 (stereo not given) | 3.34% | 1.41% | 8.1% | -12.6% | -5.27%
60 | COc1ccc(-c2cc(-c3cnn(C)c3)cn3cncc23)cn1 | -22.9% | -3.79% | -6.17% | -53.2% | -18.5%
